Measurements taken from paper PMC5753878.
Residue numbers refer to the chain shown, from its start. Names may count otherwise. These are yes or no findings as the source states them, for the method shown. Binding seen in cells or lysates may run through a third protein. Some entries that bind do so weakly or less than the wild type. Sequences can lack the tags named with a protein. Each block holds one binder with its values, some of them ahead of it.

Experiments:
[1] = molecular target: T1, Cdc13 tagged with (FLAG)3 (S. cerevisiae) (UniProt P32797); assay: co-IP; anti-FLAG IP of Cdc13 tagged with (FLAG)3 from yeast extracts, Est1 tagged with (myc)12
T1 sequence: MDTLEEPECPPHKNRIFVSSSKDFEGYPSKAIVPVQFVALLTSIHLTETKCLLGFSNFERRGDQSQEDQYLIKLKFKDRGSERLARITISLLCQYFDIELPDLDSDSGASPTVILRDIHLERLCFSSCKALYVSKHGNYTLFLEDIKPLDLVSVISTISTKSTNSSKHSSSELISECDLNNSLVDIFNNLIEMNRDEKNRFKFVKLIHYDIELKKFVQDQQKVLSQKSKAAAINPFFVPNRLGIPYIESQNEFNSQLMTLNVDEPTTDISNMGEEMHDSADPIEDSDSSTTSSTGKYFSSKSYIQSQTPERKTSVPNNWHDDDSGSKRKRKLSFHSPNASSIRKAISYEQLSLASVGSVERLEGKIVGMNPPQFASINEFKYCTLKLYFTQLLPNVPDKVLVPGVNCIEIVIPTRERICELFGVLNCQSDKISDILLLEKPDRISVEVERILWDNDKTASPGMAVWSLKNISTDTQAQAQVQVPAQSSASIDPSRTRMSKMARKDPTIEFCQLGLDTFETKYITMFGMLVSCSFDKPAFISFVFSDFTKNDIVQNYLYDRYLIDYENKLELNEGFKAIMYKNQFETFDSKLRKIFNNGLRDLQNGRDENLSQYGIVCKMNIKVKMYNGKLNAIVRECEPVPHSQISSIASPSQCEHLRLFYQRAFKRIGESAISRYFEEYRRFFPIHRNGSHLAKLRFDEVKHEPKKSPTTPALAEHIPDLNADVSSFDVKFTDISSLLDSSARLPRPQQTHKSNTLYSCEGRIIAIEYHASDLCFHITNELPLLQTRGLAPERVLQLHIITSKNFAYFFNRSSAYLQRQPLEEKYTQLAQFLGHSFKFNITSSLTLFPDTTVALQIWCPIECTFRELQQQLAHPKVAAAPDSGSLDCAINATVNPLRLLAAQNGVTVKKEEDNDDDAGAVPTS

[2] = molecular target: T2, Cdc13-E252K tagged with (FLAG)3 (S. cerevisiae) (UniProt P32797); assay: as above
T2 sequence: T1 sequence with E252K

[3] = molecular target: T3, Sme1 tagged with (FLAG)3 (S. cerevisiae) (UniProt Q12330); assay: co-IP; anti-FLAG IP of Pop1 or Sme1 tagged with (FLAG)3 from yeast extracts, Est1 tagged with (myc)12
T3 sequence: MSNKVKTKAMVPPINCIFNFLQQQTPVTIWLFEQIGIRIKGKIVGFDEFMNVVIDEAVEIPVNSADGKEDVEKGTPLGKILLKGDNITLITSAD

[4] = molecular target: T4, (FLAG)3-(myc)12-Est2 (S. cerevisiae) (UniProt Q06163); assay: co-IP; anti-FLAG IP of (FLAG)3-(myc)12-Est2 from yeast whole-cell extracts, anti-myc western for Est1 and Est2; TMG200 (10 mM Tris-HCl pH 8, 1 mM MgCl2, 5% glycerol, 200 mM NaCl2) + 0.1% Tween20, 2 hr at 4°
T4 sequence: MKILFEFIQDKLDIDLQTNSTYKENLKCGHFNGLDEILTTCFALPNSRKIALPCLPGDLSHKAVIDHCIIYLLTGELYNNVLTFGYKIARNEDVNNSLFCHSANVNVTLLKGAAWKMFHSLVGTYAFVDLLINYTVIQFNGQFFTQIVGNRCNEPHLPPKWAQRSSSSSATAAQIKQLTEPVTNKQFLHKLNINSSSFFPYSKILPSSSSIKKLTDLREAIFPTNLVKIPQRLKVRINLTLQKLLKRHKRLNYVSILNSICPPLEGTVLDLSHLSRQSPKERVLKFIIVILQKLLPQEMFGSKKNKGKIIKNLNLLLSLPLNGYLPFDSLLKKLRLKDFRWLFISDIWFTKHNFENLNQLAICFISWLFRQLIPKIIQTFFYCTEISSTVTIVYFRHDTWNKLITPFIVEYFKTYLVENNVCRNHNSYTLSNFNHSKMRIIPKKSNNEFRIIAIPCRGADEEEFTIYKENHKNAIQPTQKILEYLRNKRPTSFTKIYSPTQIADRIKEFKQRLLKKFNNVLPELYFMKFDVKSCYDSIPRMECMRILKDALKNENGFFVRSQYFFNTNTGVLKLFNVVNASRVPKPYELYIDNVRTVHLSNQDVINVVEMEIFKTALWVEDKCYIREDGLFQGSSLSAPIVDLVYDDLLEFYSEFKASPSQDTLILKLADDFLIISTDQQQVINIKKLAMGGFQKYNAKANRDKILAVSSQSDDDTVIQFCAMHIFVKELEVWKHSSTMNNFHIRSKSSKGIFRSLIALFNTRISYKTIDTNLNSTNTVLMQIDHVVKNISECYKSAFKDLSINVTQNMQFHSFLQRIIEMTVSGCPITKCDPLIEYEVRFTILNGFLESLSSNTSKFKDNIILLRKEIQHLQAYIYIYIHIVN

binding [1]: binds
binding [2]: no binding
B1: Est1-(myc)12, wild-type Est1 telomerase subunit (protein, UniProt P17214 1-699)
chain: MDNEEVNEECMRLFFKNARAHLDKHLTSRLTCDENAYITFRCFLDGIHRKSTRFLEELLLKQENMYHNNNYERINDSVIPLVLKLLWLQIHEPTLQWFEHWFHDIMRLSNRRKFRVFRIFQKKMIQFFKITHRYYYDIIEHLCAKYDMNSVISNALFAKLNLMQYTDGLSTHEKIILNTSNPLTFSIVISLQRCVINLGSTHFYKTLLNKPSNKPKSVEGFEKSIRYLNIASLYLPAVGDTYFQRAKIYLITGKFSLYFFELVRGALVRIPSKCALNNLKDFILTPDFPERRRLMKKLAILVSKDLKGEKSFFEGQIVLQFLSIVEHTLVPQSWNASRASNCWLLKEHLQMAALKYHSGNINVILENLAATMGSFDLMFTTRKSKEQKNKLKYADLSERQVFFLDLSFDFIANIIDVVIKPSWQKNMEDFRYLAIIRLLMCWIKSYRSILQYTHRHRKFCTSFALLLNDLINSPLNCSGNIYSHRPKRSYLFREDIIFREFSCINFALTDFNDDYVYDSPDMINNIIGCPTLTKVLSPKEECVLRIRSIIFSGMKFLEKNDTGVIWNASKYKFDLISPNIKIKRQIALSEISSKINVKTQQERVVSSRKVEAKRDEQQRKRAGKIAVTELEKQFANVRRTKKLSPLPEKDGVSSELVKHAASRGRKTITGPLSSDFLSYPDEAIDADEDITVQVPDTPT

binding [1]: binds
binding [3]: no binding
B2: Est1-Y136D-(myc)12 (protein, UniProt P17214 1-699)
chain: B1 chain with Y136D

binding [4]: no binding
B3: C-terminal domain of Est1 (amino acids 340-699) with (myc)12 (domain or fragment, UniProt P17214 340-699)
chain: SNCWLLKEHLQMAALKYHSGNINVILENLAATMGSFDLMFTTRKSKEQKNKLKYADLSERQVFFLDLSFDFIANIIDVVIKPSWQKNMEDFRYLAIIRLLMCWIKSYRSILQYTHRHRKFCTSFALLLNDLINSPLNCSGNIYSHRPKRSYLFREDIIFREFSCINFALTDFNDDYVYDSPDMINNIIGCPTLTKVLSPKEECVLRIRSIIFSGMKFLEKNDTGVIWNASKYKFDLISPNIKIKRQIALSEISSKINVKTQQERVVSSRKVEAKRDEQQRKRAGKIAVTELEKQFANVRRTKKLSPLPEKDGVSSELVKHAASRGRKTITGPLSSDFLSYPDEAIDADEDITVQVPDTPT
